Results taken from the RNAGym collection of RNA variant scans (doi:10.1101/gad.245936.114).
This sample is rich in variants without activity.

B1: tRNA (parent)
chain: CUCUCGGUAGCCAAGUUGGUUUAAGGCGCAAGACUUUAAUUUAUCACUACGAAAUCUUGAGAUCGGGCGUUCGACUCGCCCCCGGGAGAUUUUUUCCUCGAGCAA

Variants of: B1
Assay: nonsense suppression (GFP-seq) (ratio to wild type); higher = more function; SUP4oc tRNA, yeast GFP reporter sort-seq
In short: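 Raffinose/galactose medium with 80 mg/L adenine was used to grow yeast carrying genome-integrated tRNA variants (~3% random-mutation library), RFP, and a galactose-driven GFP ochre reporter. Cells went into GFP/RFP bins, which were Illumina-sequenced, and variants with ≥100 reads and ≥30 cells were scored. Nonsense suppression (GFPSEQ) is the per-bin median GFP/RFP weighted by estimated cell share and expressed relative to the unmutated parent tRNA.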

Point of comparison: C12A A31G, nonsense suppression 0.0261. Against it:
- C11U U71A G73C — lower, ≤ 0.026
- C11U U71C — lower, ≤ 0.026
- C11U U76C G86A — lower, ≤ 0.026
- C12A A13C — lower, ≤ 0.026
- C12A A13C C80G — lower, ≤ 0.026
- C12A A13C U21G U57C A62U A74C — lower, ≤ 0.026
- C12A A13G C68G — lower, ≤ 0.026
- C12A A13G U17A C64U — lower, ≤ 0.026
- C12A A13U A30C U63G — lower, ≤ 0.026
- C12A A14G — lower, ≤ 0.026
- C12A A23C G73C — lower, ≤ 0.026
- C12A A23C U35A G73A — lower, ≤ 0.026
- C12A A23U — lower, ≤ 0.026
- C12A A24C U63A — lower, ≤ 0.026
- C12A A24G C34G U63A C81A — lower, ≤ 0.026
- C12A A30C — lower, ≤ 0.026
- C12A A30C U70A — lower, ≤ 0.026
- C12A A30U C75G — lower, ≤ 0.026
- C12A A31C — lower, ≤ 0.026
- C12A A33U — lower, ≤ 0.026
- C12A A54C G61A — lower, ≤ 0.026
- C12A A54U — lower, ≤ 0.026
- C12A A60G G61A G86C — lower, ≤ 0.026
- C12A A60U A62C G65A G78C — lower, ≤ 0.026
- C12A A62C — lower, ≤ 0.026
- C12A A62U — lower, ≤ 0.026
- C12A A74U — lower, ≤ 0.026
- C12A C27A — lower, ≤ 0.026
- C12A C27U C56A G86A — lower, ≤ 0.026
- C12A C29G — lower, ≤ 0.026
- C12A C29U C34A U55C A74U — lower, ≤ 0.026
- C12A C34G G84A — lower, ≤ 0.026
- C12A C34G U63A G65A A87U A89U — lower, ≤ 0.026
- C12A C56A U76C — lower, ≤ 0.026
- C12A C64G U76G — lower, ≤ 0.026
- C12A C68U U70A G84A — lower, ≤ 0.026
- C12A C72A G85C — lower, ≤ 0.026
- C12A C77A G86U — lower, ≤ 0.026
- C12A C80G G88A — lower, ≤ 0.026
- C12A C83G G85A — lower, ≤ 0.026
- C12A G15A G18C A31G A54C C77A — lower, ≤ 0.026
- C12A G15U A24U A62U — lower, ≤ 0.026
- C12A G18U A23G A31G — lower, ≤ 0.026
- C12A G18U U70C — lower, ≤ 0.026
- C12A G19U A24G G28U A62U — lower, ≤ 0.026
- C12A G19U G26C C56G G61U — lower, ≤ 0.026
- C12A G25A G26A — lower, ≤ 0.026
- C12A G25C G66C C81G A89C — lower, ≤ 0.026
- C12A G25C U57C U63C — lower, ≤ 0.026
- C12A G25U G88A — lower, ≤ 0.026
- C12A G26A — lower, ≤ 0.026
- C12A G28C A31C U70C G73A — lower, ≤ 0.026
- C12A G28C A31G U57G — lower, ≤ 0.026
- C12A G32A G86C — lower, ≤ 0.026
- C12A G32C U57G — lower, ≤ 0.026
- C12A G59A — lower, ≤ 0.026
- C12A G59U — lower, ≤ 0.026
- C12A G61C G66C — lower, ≤ 0.026
- C12A G65A — lower, ≤ 0.026
- C12A G65A G84A — lower, ≤ 0.026
- C12A G67C — lower, ≤ 0.026
- C12A G67U — lower, ≤ 0.026
- C12A G69C G85A G86U G88U — lower, ≤ 0.026
- C12A G86U — lower, ≤ 0.026
- C12A U16G A60G C83G G85A — lower, ≤ 0.026
- C12A U17A — lower, ≤ 0.026
- C12A U17A C29A G59A — lower, ≤ 0.026
- C12A U20A — lower, ≤ 0.026
- C12A U20A A24C G32U C77A — lower, ≤ 0.026
- C12A U20G A31G U55C — lower, ≤ 0.026
- C12A U20G G32A — lower, ≤ 0.026
- C12A U21A A54U G69U — lower, ≤ 0.026
- C12A U21C G25U G65A — lower, ≤ 0.026
- C12A U22C — lower, ≤ 0.026
- C12A U22C C81A — lower, ≤ 0.026
- C12A U22G C81G — lower, ≤ 0.026
- C12A U35A C81G — lower, ≤ 0.026
- C12A U35C C72G G85A — lower, ≤ 0.026
- C12A U55C C81A — lower, ≤ 0.026
- C12A U55G — lower, ≤ 0.026
- C12A U57C — lower, ≤ 0.026
- C12A U63G G86A — lower, ≤ 0.026
- C12G A13C — lower, ≤ 0.026
